The values below come from ChEMBL document CHEMBL4888484, “Replenishing the malaria drug discovery pipeline: Screening and hit evaluation of the MMV Hit Generation Library 1 (HGL1) against asexual blood stage Plasmodium falciparum ,using a nano luciferase reporter read-out” (2022).

The whole screen tested about 150,000 compounds, of which about 540 (0.36%) showed an effect of 50% or more. Some of the results follow.

This assay concerns Plasmodium falciparum. Briefly: Primary screen in NF54 nanoGlo assay, in single point, at 2uM, 72h; a lower Z score goes with more inhibition. The class given is functional, Erythrocyte. The conditions noted are these: timepoint 72 hour.
Broadly, the % Inhibition is the drop in the measured response relative to a control, in per cent. For the compound `CCCN(CC(=O)N1CCc2sccc2C1COc1cccc(OC)c1)CC(O)CC` (stereo not drawn), the “% Inhibition” value is reported as 6% and the Z score was -0.55.
Consider `Cc1csc(C(=O)NC2CCC2O)c1` (stereo not drawn), for which the “% Inhibition” value is on record as -16% and the Z score was 2.07.
On to `O=C(Nc1cc(C2CC2)n[nH]1)C1CC1c1ccccc1` (stereo not drawn), for which the “% Inhibition” value is on record as -6% and the Z score amounted to 0.9.
As for `c1ccc2c(c1)N(Cc1ccno1)CCCN2Cc1ccno1`, the “% Inhibition” value is given as -6% and the Z score was determined as 1.01.
The like results for `CC(=O)NCCC(=O)Nc1ccc(OC[C@H]2CCCCO2)cc1` were, in that order, -6% and 1.02.
For `COc1cccn2ncc(C(=O)N[C@@]3(CCO)CCOC3)c12`, the “% Inhibition” value is given as -13% and the Z score worked out at 2.67.
For `CCN1CCC[C@@H]1CNC(=O)c1ccc(-c2ccc(OC)cc2OC)cc1`, the “% Inhibition” value is on record as -14% and the Z score came out at 2.72.
For the compound `O=C(C[C@@H]1COC2(C1)CN(C(=O)CCCc1ccccc1)C2)NCc1ccncc1`, the “% Inhibition” value was determined as 0% and the Z score is recorded as -0.04.
The corresponding values for `Cc1cc(CN2C(=O)c3ccccc3C2=O)cc(N2CCC(C)CC2)c1` are -15% and 1.95.
In the case of `CC(=O)c1ccc(NC(=O)[C@H](C)Nc2ccc3c(c2)CCC3)cc1`, the “% Inhibition” value was -8% and the Z score was determined as 0.75.
In the case of `CCOc1ccccc1NC(=O)c1c(NCc2ccc(N(C)C)cc2)sc2c1CCC2`, the “% Inhibition” value is on record as -10% and the Z score is on record as 1.62.
For the compound `COc1cc2c(cc1OC)[C@@H](NC(=O)c1c(C)noc1C)CC2`, the “% Inhibition” value is reported as 7% and the Z score is recorded as -1.07.
As to `COc1ccc(-n2cc(-c3cccc(OC)c3)nc2NC(=O)CN(C(=O)c2ccc3c(c2)OCO3)C(C)C)cc1`, the “% Inhibition” value was -5% and the Z score amounted to 0.53.
Consider `CC(=O)N(C)c1cccc(NC(=O)N2CCC(N3CCCC3)CC2)c1`, for which the “% Inhibition” value is listed as -11% and the Z score is given as 1.8.
For the compound `CCNC(=O)N1CC[C@H](Oc2cc(N3CCCC3)ncn2)C1`, the “% Inhibition” value is -18% and the Z score amounted to 2.29.
Regarding `CCN(Cc1ccccn1)Cc1[nH]nc(C)c1Cl`, the “% Inhibition” value turned out to be 3% and the Z score is -0.5.
For the compound `O=C(NC1CCS(=O)(=O)C1)N1CCCC1c1ccncc1` (stereo not drawn), the “% Inhibition” value was -6% and the Z score is recorded as 1.27.
Turning to `C=CCN(C(=O)c1ccc(Cl)c(C)c1)C(C)C`, the “% Inhibition” value came out at 8% and the Z score is reported as -0.73.
With `Cc1ccc(N2CCN(C(=O)c3nnn4cc(C)[nH]c(=O)c34)CC2)cc1`, the “% Inhibition” value is -14% and the Z score was 1.56.
On to `COc1ccc(O)c(-c2ccc3c(c2)OC[C@@H](N2CCCC2)[C@@H]3O)c1`, for which the “% Inhibition” value was -13% and the Z score is 1.24.
Turning to `Cc1cc(C(=O)N2Cc3[nH]c4ccccc4c3C[C@H]2C(=O)O)c(C)o1`, the “% Inhibition” value is reported as -15% and the Z score amounted to 1.41.
The like results for `COc1ccc(Cl)cc1N1C(=O)[C@@H]2C[C@H]1CN2C(=O)Cc1ccc(F)cc1` were, in that order, -9% and 1.49.
The corresponding values for `Cc1csc(-c2cc(S(=O)(=O)NC3CCC(C)CC3)c(C)n2C)n1` (stereo not drawn) are -6% and 0.92.
The like results for `CCCN1CCCCC1C(=O)NCC(C)(O)c1ccsc1` (stereo not drawn) were, in that order, -15% and 2.79.
`COc1ccccc1CN1CCC(CN(Cc2cnc(N(C)C)s2)CC(C)C)CC1`: the “% Inhibition” value is on record as -7% and the Z score turned out to be 1.01.
In the case of `FC(F)c1ccc(-c2noc(-c3ccnc(C4CC4)c3)n2)cn1`, the “% Inhibition” value is -10% and the Z score is recorded as 0.98.
Consider `Cc1ccccc1N(C(=O)CCCn1ccnc1C)C(C)C`, for which the “% Inhibition” value is given as -9% and the Z score stood at 1.35.
Regarding `COCCN(CCOC)C(=O)c1ccc(Cl)o1`, the “% Inhibition” value is listed as 0% and the Z score was found to be 0.01.
With `COc1ccc(CCC2=NCCn3cccc32)cc1`, the “% Inhibition” value was -14% and the Z score came out at 2.2.
Turning to `COc1cc(NC(=O)N2CCC[C@H](C)CC2)ncn1`, the “% Inhibition” value is listed as -7% and the Z score was determined as 0.88.
On to `O=C(NCc1cccnc1)C1=Cc2cc(-c3ccccc3)ccc2OC1`, for which the “% Inhibition” value is -11% and the Z score stood at 1.13.
`C[C@@H](CS(=O)(=O)c1ccc2ccccc2c1)N1CCC2(CC1)OCCO2`: the “% Inhibition” value was found to be 33% and the Z score is -3.75.
The corresponding values for `CC(C)C[C@]1(CO)CCCN1C(=O)Nc1ccc(OC(F)F)nc1` are -1% and 0.21.
`O=C(CCc1ccccc1)Nc1ccc(C(=O)N2CCCCC2)cc1`: the “% Inhibition” value is 3% and the Z score is listed as -0.46.
The corresponding values for `CCOCC(=O)Nc1ccc(C)c(O)c1` are -32% and 3.76.
As to `CC(C)(C)Cc1csc(NC(=O)c2coc(C3CCOCC3)n2)n1`, the “% Inhibition” value is on record as -6% and the Z score was 1.06.
With `Cc1cc(C)n(CCC(=O)N2CC[C@H](Nc3cccnc3)C2)n1`, the “% Inhibition” value came out at 12% and the Z score was -1.57.
The corresponding values for `O=C(Cc1ccccc1F)N1CC[C@H]2[C@H](CCC(=O)N2CCc2ccccn2)C1` are -4% and 0.74.
For the compound `COc1cc(C(=O)NCC[C@H]2CN(C)CCO2)nc(OC)n1`, the “% Inhibition” value was -23% and the Z score stood at 2.5.
Consider `CCOC[C@H]1CCCN1Cc1[nH]cc(C)c(=O)c1C`, for which the “% Inhibition” value was -4% and the Z score amounted to 0.68.
Turning to `COc1cc(CNC2CCCCC2)cc(Br)c1OCc1ccccc1Cl`, the “% Inhibition” value came out at 35% and the Z score is given as -0.59.
In the case of `CCn1nc(Cc2c(Cl)cccc2Cl)nc1CCN1CCCC1=O`, the “% Inhibition” value is -1% and the Z score stood at 0.12.
The like results for `O=C1CC[C@@]2(CCCO2)CCN1CCCc1ccccc1` were, in that order, -9% and 1.85.
For `CCCCC(CC)C(=O)N1CCC(C(=O)N[C@@H]2CCCC[C@H]2NC(=O)c2ccccc2)CC1` (stereo partly drawn), the “% Inhibition” value amounted to 3% and the Z score was -0.36.
Consider `Cc1ccc(CN(Cc2nc(C(=O)NCCc3ccccn3)co2)[C@@H](C)c2ccccc2)c(C)c1`, for which the “% Inhibition” value is -15% and the Z score is reported as 1.44.
Turning to `CC1(C)CO[C@H](c2ccccc2Cl)CN1CC(=O)N1CCNC(=O)C1`, the “% Inhibition” value is recorded as -11% and the Z score amounted to 1.64.
The like results for `COCC[C@H](NCC#N)c1ccc(Cl)cc1` were, in that order, -8% and 1.22.
The like results for `CCC(=O)N1CCN(C(=O)c2ccc3nccnc3c2)[C@H]2CS(=O)(=O)C[C@H]21` were, in that order, 5% and -0.51.
For the compound `CN1CCC(Nc2nc(-c3ccc(Cl)cc3)cc(C(F)F)n2)CC1`, the “% Inhibition” value was -8% and the Z score is listed as 0.98.
Take `COc1ccc(C(=O)Nc2cccc(C3OC(=O)N(Cc4ccc(C)cc4)C3C(=O)NCC(C)C)c2)cc1` (stereo not drawn): the “% Inhibition” value is -13% and the Z score is recorded as 1.27.
In the case of `Cc1cnc(CCNC(=O)c2cccn2C)n1C1CCCC1`, the “% Inhibition” value is reported as -7% and the Z score is 1.03.
Take `Cc1nc([C@H]2CCN(C(=O)c3snnc3C)C2)n[nH]1`: the “% Inhibition” value is recorded as -1% and the Z score came out at 0.19.
As for `O=C1OCCC1N1CCOC(c2ccc(Cl)cc2)C1` (stereo not drawn), the “% Inhibition” value was -15% and the Z score came out at 1.88.
`COC(=O)CC[C@@H]1CN(Cc2cccc(F)c2)CC[C@@H]1N1CCN(c2cccc(C(F)(F)F)c2)CC1`: the “% Inhibition” value is reported as -7% and the Z score is 0.77.
